Z-score data for 113 compounds are collected here from PubChem BioAssay AID488969 (Vanderbilt High Throughput Screening Facility, 2010).

Over roughly 110,000 compounds, “z-score” has its median near -0.1; the highest 2% begin near 2. The list shows a part of the results. Active and inactive are the calls of the source.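 The calls were made as follows: active = z-score in the third read window above 3 or below -3; inactive = the rest.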

This experiment has as its target Metabotropic glutamate receptor 8 (Rattus norvegicus) (UniProt P70579). The experiment is described as follows: mGluR8 Gi/Go-coupled signaling modulation – cell-based, rat, thallium flux, HTS, primary screen (AID 488969). Particulars: HEK293 rat mGluR8, GIRK (G protein-gated inwardly rectifying potassium channel) thallium flux, FluoZin2; at 10 µM; stronger effect = higher value; submaximal glutamate (EC20) added with thallium.
UniProt P70579, sequence (P70579 whole entry, looked up): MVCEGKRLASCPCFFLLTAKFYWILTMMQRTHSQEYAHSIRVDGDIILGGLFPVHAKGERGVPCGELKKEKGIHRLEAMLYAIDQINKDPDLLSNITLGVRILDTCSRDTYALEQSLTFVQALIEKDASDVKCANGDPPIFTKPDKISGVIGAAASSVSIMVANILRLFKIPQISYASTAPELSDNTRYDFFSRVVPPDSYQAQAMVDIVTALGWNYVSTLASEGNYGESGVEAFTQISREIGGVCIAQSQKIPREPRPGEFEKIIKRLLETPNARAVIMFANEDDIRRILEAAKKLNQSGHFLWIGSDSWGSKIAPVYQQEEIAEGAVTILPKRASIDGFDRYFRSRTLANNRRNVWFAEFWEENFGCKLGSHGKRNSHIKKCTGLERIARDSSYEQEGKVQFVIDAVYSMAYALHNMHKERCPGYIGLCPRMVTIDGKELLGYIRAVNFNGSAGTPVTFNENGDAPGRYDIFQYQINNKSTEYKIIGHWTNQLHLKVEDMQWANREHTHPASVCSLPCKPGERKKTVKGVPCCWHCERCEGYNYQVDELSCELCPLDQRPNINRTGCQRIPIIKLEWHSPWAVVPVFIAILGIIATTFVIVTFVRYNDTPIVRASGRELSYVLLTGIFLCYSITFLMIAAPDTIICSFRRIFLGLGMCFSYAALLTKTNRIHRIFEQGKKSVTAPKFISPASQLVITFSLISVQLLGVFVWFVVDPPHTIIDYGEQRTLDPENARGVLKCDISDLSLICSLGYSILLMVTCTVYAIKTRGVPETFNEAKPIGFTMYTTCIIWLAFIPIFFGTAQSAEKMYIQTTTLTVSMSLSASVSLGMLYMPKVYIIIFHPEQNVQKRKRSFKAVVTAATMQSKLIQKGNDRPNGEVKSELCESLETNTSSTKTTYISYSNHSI
Consider `Cc1ccccc1NC(=O)c1cc(N)ccc1N1CCCCC1`, for which the z-score is -0.319. In the case of `Cc1ccc(/C=N\NC(=O)c2cc([N+](=O)[O-])cc([N+](=O)[O-])c2)o1` it was active: 4.57; in that of `COc1ccccc1N1CCN(C(=O)CSc2nc(C)c(Cc3ccccc3)c(=O)[nH]2)CC1`, -0.00727. The value for `CCSC(=O)N(CC)CC(=O)Nc1c(CC)cccc1CC` was -0.553. Take `COc1cccc(C2C(C#N)=C(N)OC3=C2C(=O)CC(c2ccco2)C3)c1OCc1ccc(F)cc1` (stereo not drawn): the z-score is -0.186. As for `Cc1sc(NC(=S)NC(=O)CCc2ccccc2)c(C(N)=O)c1C`, the z-score was -0.297. In the case of `Cc1ccccc1NC(=S)N(C)Cc1cn(C)c2ccccc12` it was 0.812; in that of `O=C(NCc1ccco1)c1nc2c(nnn2Cc2cccc(Cl)c2)c(=O)[nH]1`, -0.491; in that of `O=C(N/N=C\c1ccc(Cl)cc1)c1sccc1-n1cccc1`, 0.1. Compound `CC(NC(=O)CCC(=O)NC(C)C1COc2ccccc2O1)C1COc2ccccc2O1` (stereo not drawn) gave a z-score of -0.434. As to `COc1ccc(-c2nnc(SCC(=O)Nc3sc4c(c3C#N)CCCC4)n2-c2ccccc2)cc1`, the z-score is -0.275.

As to `CSc1ccc(Cl)c(C(=O)Nc2ccc(OCC(N)=O)cc2)c1`, the z-score is -0.157. The compound `O=C(Nc1ccc(Cl)cc1)[C@@H]1[C@@H]2C(=O)N(c3ccc4ccccc4c3)C(=O)[C@@H]2[C@H]2C=CC=NN21` registered a z-score of -0.281.

`CCNc1ccc(S(=O)(=O)N(C)C)cc1NCC(=O)Nc1ccccc1F` came in with a z-score of -0.159. With `CCCCCCSc1cc(C)nc2ncnn12`, the z-score is -0.416.

`CN1CCC(C2(O)c3ccccc3CSc3sccc32)CC1` (stereo not drawn) showed a z-score of 2.02. The value for `Cc1cc2ncc(-c3ncc(C(F)(F)F)cc3Cl)cn2n1` was -0.148; that for `Cc1nn(-c2ccccn2)c2c1C(c1ccncc1)C1=C(CC(C)(C)CC1=O)N2` (stereo not drawn) was -0.749. Turning to `O=c1oc2cc(Oc3ccc(C(F)(F)F)cc3[N+](=O)[O-])ccc2c2c1CCC2`, the z-score is -2.23. `COc1cccc(CN(C)CC(=O)NCc2ccccc2Cl)c1` returned a z-score of -0.428. The value for `COC(=O)c1cccc(S(=O)(=O)N2CCOCC2)c1` was -0.197; that for `COc1ccc(CCNc2nc(-c3sc(N)nc3C)cs2)cc1OC` was -0.105. The value for `Cc1ccc(NC(=O)C2CCN(S(=O)(=O)c3c(C)noc3/C=C/c3ccco3)CC2)nc1` was -0.287; that for `CCOc1ccc(N2CSC3=C(C#N)C(c4ccco4)CC(=O)N3C2)cc1` (stereo not drawn) was -0.728; that for `O=C(CSc1nnnn1-c1ccc2c(c1)CCC2)Nc1ccc2c(c1)OCCO2` was -0.151.

For the compound `CCOC(=O)COc1ccccc1/C=N/O`, the z-score was -0.259. Compound `COc1ccc(-n2c(SCC(=O)Nc3ccccc3)nnc2-c2ccc(NS(=O)(=O)c3ccc(C)cc3)cc2)cc1` displayed a z-score of 0.0713. The compound `O=C(O)c1cccc(NC(=O)c2cccc(NC(=O)C3CCCO3)c2)c1` (stereo not drawn) returned a z-score of -0.122. In turn, `Cc1ccc(C(=O)NC2CCN(C(=O)NC3CCCCC3)CC2)cc1` came in with a z-score of 0.275. In the case of `CC(=O)c1c(C)nc(C)nc1NC(=O)C(C)C` it was -0.127; in that of `COc1cc(C2C(C(=O)OCCC#N)=C(C)NC3=C2S(=O)(=O)c2ccccc23)cc(OC)c1OC` (stereo not drawn), -0.219; in that of `O=S1(=O)c2ccccc2N=NN1Cc1ccc(Cl)cc1`, 0.142. Compound `COc1cc(-c2cn[nH]c2N)cc(OC)c1OC` gave a z-score of 0.202. In the case of `Cc1ccc(N=C2NC(=O)c3cccc([N+](=O)[O-])c32)cc1` it was -0.0756. Consider `CCNNC(=O)C(O)(c1cccc(C)c1)c1cccc(C)c1`, for which the z-score came to 0.0236.

With `CCN(CC)c1ccc(NC(=O)c2[nH]c(C)c(C(C)=O)c2C)c(C)c1`, the z-score came out at 0.615. `Cc1ccc(CSCCNC(=O)CN2C(=O)c3ccccc3S2(=O)=O)cc1` showed a z-score of 0.181. The value for `CN1CCN(NC(=O)c2ccc(F)cc2)CC1` was -0.781; that for `CCNC(=O)NC1(C(=O)Nc2ccc3c(c2)OCCO3)CCCCC1` was 0.873. The value for `CCc1ccc(S(=O)(=O)Nc2c(C)nn(C)c2C)cc1` was -0.343; that for `CCOC(=O)c1ccc(NC(=O)CSc2nc3cccnc3n2C)cc1` was 0.279; that for `CCOC(=O)CCc1c(C)nc2cc(-c3ccc(F)cc3)[nH]n2c1=O` was 0.178. The value for `Cc1ccccc1NC(=O)c1sc(Cl)nc1C` was 1.16; that for `CC(C)(C)c1cnnn1-c1ccc(C(=O)CCl)cc1` was -0.643; that for `COc1ccc(OC)c(-n2c(SCC(N)=O)nnc2-c2c[nH]c3ccccc23)c1` was -0.467. The compound `Cc1ccc(S(=O)(=O)N(C)CCCC(=O)Nc2ccc(C)cc2C)cc1` yielded a z-score of -0.0933. Turning to `COC(=O)c1ccsc1NC(=O)C1COc2ccccc2O1` (stereo not drawn), the z-score was -0.613. In the case of `COc1cc([N+](=O)[O-])ccc1N/C=C/C(=O)c1cccs1` it was -0.108. For `NC(=S)N/N=C/c1ccc(-c2ccc(Cl)c(Cl)c2)o1`, the z-score is 0.653. Compound `COC(=O)c1cccc(NC(=O)c2cccs2)c1C` came in with a z-score of 0.109.

Regarding `COc1ccccc1OCC(=O)Nc1ccc(Cl)cc1`, the z-score was -0.181.

With `COc1nn(CC(=O)N2N=C(C)CC2(O)C(F)(F)F)cc1[N+](=O)[O-]` (stereo not drawn), the z-score was -0.0682. In the case of `COc1ccc2ccccc2c1CN1CCN(Cc2ccccc2)CC1` it was 0.223; in that of `CCCCCCC(=O)Nc1nnc(CC)s1`, -0.111. `O=C(O)c1cc2c(ccc3ccccc32)[nH]1` showed a z-score of -0.467. The compound `CCN1CCN(C(=S)NC(C)c2ccccc2)CC1` (stereo not drawn) came in with a z-score of -0.207. The value for `O=C(Nc1ccc2c(c1)OCCO2)c1ccc(Cl)c(S(=O)(=O)N2CCOCC2)c1` was -0.662; that for `N#C/C(=C(\O)c1ccco1)c1ccccn1` was -0.246; that for `CCOC(=O)COc1ccc2cc(C(=O)OCC)c(=O)oc2c1` was 1.1. In the case of `C/C(=N\NC(=O)CNc1cccc(C(F)(F)F)c1)c1cccc(Br)c1` it was -0.125; in that of `Cc1ccccc1C(=O)OC1OC(=O)C(Cl)=C1N1CCOCC1` (stereo not drawn), -0.499; in that of `CCc1ccc(Sc2cc(C(=O)NCCN3CCOCC3)c3ccccc3n2)cc1`, -0.7. In the case of `CCOC(=O)c1sc(NC(=O)CN2CCCC2)c(C(=O)OCC)c1C` it was -0.225; in that of `CCc1nc(Sc2nc(C)cc(C)n2)c2oc3ccccc3c2n1`, -0.129. As for `COc1ccc(Nc2nc(N)nc(CSc3nnc(C)s3)n2)cc1`, the z-score was 2.42.

Take `CCC(C)(C)NC(=O)Cc1ccc(OC)c(OC)c1`: the z-score turned out to be 0.174. Consider `CCOc1ccc(NC(=O)CCNc2c(N3CCCC3)c(=O)c2=O)cc1`, for which the z-score was -0.437. For the compound `O=C1CSC(c2ccc(Cl)cc2)N1C1CCCCC1` (stereo not drawn), the z-score worked out at 0.0107. Turning to `COc1ccc(/C=N/NC(=O)c2ccoc2C)cc1COc1c(C)cccc1C`, the z-score was -0.274. In the case of `Cc1nc(NCC2CCCO2)nc2c1C(=O)CC(C)C2` (stereo not drawn) it was 0.0754; in that of `COc1ccccc1N1C(=O)c2cccc3c(C(=O)O)ccc(c23)C1=O`, -0.226; in that of `COc1ccc(C(O)CNc2ccc(C)cc2)cc1` (stereo not drawn), 0.239.

`COc1ccc(-c2noc(CN3CCCCC3)n2)cc1OC`: the z-score came to 0.247.

Take `CN(C(=S)NC(=O)c1ccccc1Br)C1CCCCC1`: the z-score was active: 3.51. Regarding `Cc1cc(C)c(S(=O)(=O)c2ccccc2C)c(N(C)C)n1`, the z-score was -0.384. The compound `CC(=O)Nc1ccc(S(=O)(=O)Nc2ccc(S(=O)(=O)N3CCCCCC3)cc2)cc1` had a z-score of -0.013. Compound `O=C(CNS(=O)(=O)c1ccc(Br)s1)NCc1ccc2c(c1)OCO2` had a z-score of 1.5. In the case of `O=C(N/N=C/c1ccc(-c2ccc([N+](=O)[O-])cc2)o1)C(O)c1ccccc1` (stereo not drawn) it was -0.759.

`CC(=O)Cc1nsc(NC(=O)c2ccc(Br)o2)n1` yielded a z-score of -0.0971. In the case of `COc1ccc(C(F)(F)F)cc1NC(=O)c1nc2nc(C)cc(C(F)F)n2n1` it was 0.516; in that of `CCCn1c(CCC(=O)O)ccc1-c1ccc(OC)cc1`, -0.256. As for `Cc1ccc(C)c(OCCOCCN2CC(C)OC(C)C2)c1C` (stereo not drawn), the z-score was -0.135. Compound `O=C(CC(=O)c1ccccc1)Nc1cccnc1` displayed a z-score of 0.208. On to `CCOC(=O)/C(C#N)=C/NC(=O)NC(C)(C)C`, for which the z-score stood at 0.141. In the case of `C=CCn1c(SCC(=O)N2CCN(c3ccccc3)CC2)nnc1-c1ccco1` it was -0.329; in that of `Cn1c(CCc2ccccc2)nnc1SCC(=O)N1CCOCC1`, -0.062; in that of `Cn1c(NC(=O)c2ccco2)c(-c2ccc(Cl)cc2)c(=O)c2ccccc21`, 0.399. In turn, `O=C(OCc1ccc(F)cc1)c1ccc2c(c1)-c1ccccc1C2=O` yielded a z-score of -0.0352. In the case of `CC(C)(C)n1nc2c(c1NC(=O)Cc1cccs1)CSC2` it was -0.677; in that of `COc1cccc(/C=N/n2nnc3c(cnn3-c3ccccc3)c2=O)c1`, 0.104. Consider `CCCNS(=O)(=O)c1ccc(CCC(=O)NCC2CCCO2)cc1` (stereo not drawn), for which the z-score was determined as 0.0154.

For `Cn1c(SCC(=O)Nc2ccccc2-c2ccccc2)nnc1-c1ccco1`, the z-score was -0.707. The value for `O=C(NCc1ccccc1)C12CN(Cc3ccccc3)CC1C(c1ccc([N+](=O)[O-])cc1)=NO2` (stereo not drawn) was -0.205; that for `CCC(=O)Nc1c2c(nn1-c1ccc(F)cc1)CS(=O)C2` (stereo not drawn) was 0.144. In the case of `COCCCNC(=O)Cn1nnc(-c2ccc(NC(=O)c3ccccc3OC)cc2)n1` it was 1.23. As to `CN(C)c1nc(SCc2ccccc2Cl)nc2c1CCCC2`, the z-score is -0.137.

`COC(=O)Cn1c(=NC(=O)c2cccc(OC)c2)sc2cc(OC)ccc21` came in with a z-score of -0.22. In the case of `O=C(NC(C(=O)N/N=C/c1ccccc1)c1n[nH]c(=O)c2ccccc12)c1ccccc1` (stereo not drawn) it was -0.323. In the case of `CCN(CC)c1ccc(C2CC(=O)Nc3cc(OC)c(OC)cc32)cc1` (stereo not drawn), the z-score is -0.18. `COc1ccc(OCCNC2CCCC2)cc1` showed a z-score of 0.204. The value for `COc1cccc(C(=O)Nc2ccc(F)cc2F)c1` was 0.125; that for `COc1cc(OC)c(OC)cc1CNC1CCCCCC1` was 0.971; that for `CNCCCC1Sc2ccccc2Oc2ccccc21` (stereo not drawn) was 2.85. In the case of `O=C(CSc1ncn[nH]1)N(C1CCCCC1)C1CCCCC1` it was -0.388. The value for `COc1cc(C(=O)O)cc(Br)c1OC1CCCC1` was -0.268; that for `N#Cc1c(NC(=O)CSc2nnnn2C2CCCC2)sc2c1CCCC2` was 0.275. In turn, `O=C1CCc2cc(S(=O)(=O)N3CCC(C(=O)NC4CCCc5ccccc54)CC3)ccc2N1` (stereo not drawn) had a z-score of -0.478. In the case of `Cc1cc(C)cc(NC(=O)Cn2c(-c3ccccc3Cl)nc3ccccc32)c1` it was -0.278; in that of `c1ccc2[nH]c(CN3CCN(c4ncnc5c4oc4ccccc45)CC3)nc2c1`, -0.746.

`FC(F)(F)c1cccc(-n2cccc2/C=N/n2cnnc2)c1` came in with a z-score of -0.218. In the case of `CCNC(=S)N1CCN(c2cccc(C(F)(F)F)c2)CC1` it was 0.0243; in that of `CCC(=NCCc1c(C)[nH]c2ccccc12)C1=C(O)CC(c2ccccc2)CC1=O` (stereo not drawn), 0.443. With `COc1ccc(NC(=O)c2cc(S(=O)(=O)N(C)C)ccc2N2CCCC2)cc1Cl`, the z-score was -0.0242.
